Data published in PubChem BioAssay AID1745845 (National Center for Advancing Translational Sciences (NCATS), 2022).
Among all 360,000 compounds or so, about 2,600 (0.72%) were called active. The inconclusive results got no clear call from the source; some entries with a clear call stand among them for comparison. The call rests on the fitted dose curve; in most records, active means well fitted inhibition curve with a large enough effect; inconclusive means small, poorly fitted or top-dose-only effect; inactive means no such curve, though single readings can be large or run the other way. A potency beside an inconclusive call is a rough fit, not a confirmed value.

Test: Primary qHTS for Inhibitors of ATXN expression; further: nearly all actives have a fitted effect of over 55% in size
Conditions: HEK-293 ATXN2-luciferase reporter, luminescence, 24 h; activity change, negative = inhibition: at 57 µM (top of the series)
Procedure, shortened: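 qHTS (up to 57 uM final) was run with 24 h compound exposure of reporter cells at 37 °C. Each well was multiplexed: SteadyGlo luminescence measured ATXN2-luciferase expression after a fluorogenic Gly-Phe-AFC viability readout (25 uM final).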
On the % scale 0 is the no-effect control and ±100 the full control effect; potency means the concentration at half of the fitted maximal effect; tags describe the fitted curve by direction and shape.

SMILES	activity change, negative = inhibition	Potency
Cn1c(=O)cc(SCC(=O)N2CCCC2)c2ccccc21	inactive: -4.66%	
Cc1ccc(C)c(-n2c(-c3ccc(Br)cc3)csc2=NC(=O)c2ccccc2F)c1	inactive: -9.58%	
CNCCNC[C@H](Cc1cccc2ccccc12)NCCc1ccccc1	inactive: -22.4%	
O=C(Oc1oc(-c2ccco2)nc1C=Nc1ccc(Cl)cc1)c1ccco1	inactive: 48.9%	
O=C(/C(=C/c1ccc(Cl)cc1)c1nc2ccccc2[nH]1)c1ccccc1		inconclusive: 39.8 µM [inhibitor, single point]
CCc1ccccc1NC(=O)CSc1nc(-c2cccc(Cl)c2)nc2c1Cc1c(CO)cnc(C)c1O2	inactive: 1.78%	
O=C(C=C=Nc1ccccc1)C(=O)N=C=Cc1ccccc1		inconclusive: 39.8 µM [inhibitor, single point]
CCOc1ccc(CN2CCc3nc(N4CCN(c5ccccc5OC)CC4)ncc3C2)cc1OC		inconclusive: 12.6 µM [inhibitor, partial curve]
CC(C)(C)OC(=O)N1CCC(c2c(C(=O)NCc3cccc(Cl)c3)cnn2-c2ccc(F)cc2)CC1	inactive: 0.745%	
CCOC(=O)c1ccc(NC(=O)Cn2cnc3cc(C)c(C)cc32)cc1		inconclusive: 12.6 µM [inhibitor, partial curve, poor fit]
CCN(CC)c1ccc(NC(=O)C2CCN(c3nnc(-n4cccc4)s3)CC2)c(C)c1	inactive: -1.83%	
CCCCCOc1ccc(Br)cc1/C(C)=N/NC1=NCCN1		inconclusive: 31.6 µM [inhibitor, single point]
O=C(NC(NC(=S)Nc1ccccc1)C(Cl)(Cl)Cl)c1cccc(Cl)c1 (configuration not stated)		inconclusive: 35.5 µM [inhibitor, single point]
O=C(Nc1nnc(C2CC2)o1)c1ccc(S(=O)(=O)N2CCCc3ccccc32)cc1		active: 15.8 µM
CCOC(=O)c1cc(-c2ccc(OC)cc2)n(CCC(=O)Nc2ccccc2OC)c1C		inconclusive: 35.5 µM [inhibitor, single point]
O=C(C[n+]1ccc(-c2cc(C(=O)Nc3cccc(C(F)(F)F)c3)c3ccccc3n2)cc1)c1cccc([N+](=O)[O-])c1		inconclusive: 39.8 µM [inhibitor, partial curve, poor fit]
O=C(O)CCc1ccc(-c2ccc(Cl)cc2)n1CCC(=O)O	inactive: 4.95%	
Cn1cc(-c2cc3n(n2)CCC(=O)N3CCCC(=O)NCc2ccc(Cl)cc2)c2ccccc21		inconclusive: 39.8 µM [inhibitor, single point]
Cc1ccc(NC(=O)COc2ncnc3ccccc23)cc1S(=O)(=O)N1CCOCC1	inactive: -8.63%	
O=S(=O)(Nc1ccc2c3c(cccc13)CC2)c1ccc(F)cc1	inactive: 0.439%	
N#Cc1c(N)nc(SCc2ccncc2)c(C#N)c1-c1cccs1		inconclusive: 14.1 µM [inhibitor, partial curve, poor fit]

SMILES	activity change, negative = inhibition	Potency
CCOC(=O)c1ccc(N2C(=O)c3[nH]nc(-c4ccccc4)c3C2c2ccc(CC)cc2)cc1 (configuration not stated)		inconclusive: 39.8 µM [inhibitor, single point]
Cc1c(NC(=O)/C(C#N)=C/c2ccc(-c3ccc(Cl)c(Cl)c3)o2)c(=O)n(-c2ccccc2)n1C		inconclusive: 33.6 µM [inhibitor, partial curve, poor fit]
O=Cc1ccc(N2CCCC2)c(F)c1		inconclusive: 35.5 µM [inhibitor, partial curve, poor fit]
Cc1c(C(=O)NCc2ccc(Cl)c(Cl)c2)sc(=O)n1Cc1ccc(C(=O)N(C)C)cc1		inconclusive: 17.8 µM [inhibitor, single point]
COc1ccc(NS(=O)(=O)c2cccc(C(=O)NCC(c3ccco3)N3CCCCC3)c2)cc1 (configuration not stated)	inactive: -17.4%	
CC(C)CC1C(=O)N(Cc2cn(CC3CCCCC3)nn2)CCS(=O)(=O)N1Cc1ccc(-c2ccc(F)nc2)cc1 (configuration not stated)		inconclusive: 39.8 µM [inhibitor, partial curve, poor fit]
CCCCc1c(-c2cccc(F)c2)ncn1CCc1ccccc1OC		inconclusive: 22.4 µM [inhibitor, single point]
CC(=O)N1CCN(CC(=O)Nc2ccc(C)c(S(=O)(=O)N(C)C)c2)CC1	inactive: -11.8%	
CC(C)(O)C#Cc1ccc(CN2CCCC(CO)(Cc3cccc(Cl)c3)C2)cc1 (configuration not stated)		inconclusive: 22.4 µM [inhibitor, single point]
O=C(NC(=S)N(CCc1ccccc1)CCc1ccccc1)c1ccco1		inconclusive: 22.4 µM [inhibitor, single point]
C=CCNC(=S)N/N=C/c1ccc(-c2cc(Cl)ccc2Cl)o1		inconclusive: 39.8 µM [inhibitor, partial curve, poor fit]
CN1CCCC(CC2Oc3ccccc3Sc3ccccc32)C1 (configuration not stated)		inconclusive: 42.3 µM [inhibitor, partial curve, poor fit]
COc1cccc(OCCn2cc(/C=N/NC(=O)c3ccncc3)c3ccccc32)c1		inconclusive: 15.8 µM [inhibitor, partial curve, poor fit]
CCCCC(=O)NC(c1cccc([N+](=O)[O-])c1)c1c(OC(C)=O)ccc2ccccc12 (configuration not stated)		inconclusive: 31.6 µM [inhibitor, single point]
Cc1nc(Nc2c(Cl)cccc2Cl)sc1C(=O)Nc1ccccc1	inactive: -19.9%	
O=C(Nc1ccc(Br)cc1F)c1ccc2c(c1)OCCO2	inconclusive: -46.5% [inhibitor]	
Cc1ccccc1OCC(=O)NNC(=S)NC(=O)c1ccco1		inconclusive: 17.8 µM [inhibitor, partial curve, poor fit]
CCc1ccccc1NC(=O)CN(C)C(=O)Cn1ncc(Cl)c(Cl)c1=O		inconclusive: 39.8 µM [inhibitor, single point]
CCCCN1CC(COC)Oc2cccc(F)c2S1(=O)=O (configuration not stated)	inactive: 4.31%	
Cc1ccc(NC(=O)c2ccc(CN3CCN(C)CC3)cc2)cc1Nc1nc(-c2cccnc2)cs1		inconclusive: 48.5 µM [inhibitor, single point]
Cc1nc(N2CCN(Cc3ccc(Cl)cc3)CC2)c2oc3ccccc3c2n1		inconclusive: 22.4 µM [inhibitor, single point]
